The source gives no read counts; variants with many changes may rest on few reads.
B1: LINE1-full (parent)
chain: UACGUAGGUGGUUUUCCCCUGAUAGUGCUAAGGGGGCCUGGAAGUUUGGACUGGGCAGAGCUCAACACAGCGUGGCAAAGUGGCUGUGGCUAGACUGCCUCUCUGGAUUCCUCGUCACUCAGCAGGGCAUCUCUGAGAGAAAUGCC

Variants of: B1
Assay: self-cleavage, relative activity (ratio to wild type); higher = more cleavage; in vitro, sequencing; the parent is a self-cleaving ribozyme

Variant | self-cleavage
U1C U39C U134C | 1.17
U1C U39G A59G U115C A141G A142U | 0
U1C U45C A57U A59U U62A A77G U96C | 0
U1C U45C C71U A142G | 0.88
U1C U45C G88C | 0.05
U1C U45G A141G | 2.03
U1C U45G U134C | 0.97
U1C U46A A69G A117G A140G | 0.24
U1C U46A A78G A107U U143C | 0.72
U1C U46C A136G | 1.36
U1C U46C U108C A140G | 0.92
U1C U47A A77U A124U | 0.89
U1C U47A A140G | 0.65
U1C U47A U52A A129G A142G | 0.54
U1C U47C U85C C90U U100A U112C A129U U143C | 0.06
U1C U47C U112A | 0.32
U1C U52A U85C | 0.23
U1C U52C A57U G93A U115A A138U | 0.03
U1C U52C A69U A124G | 0.07
U1C U62C A64G | 0
U1C U62C A79G A140G | 0.07

Variant | self-cleavage
U1C U62C G83A | 0.01
U1C U73A A78G | 0.25
U1C U73A A92G U104C | 0.18
U1C U73A A141G | 0.71
U1C U73A U132C | 1.02
U1C U73C A78G | 0.48
U1C U73C C76U U130C | 1.33
U1C U85C U87A A136G | 0.08
U1C U87A U143C | 0
U1C U96C A136G | 0.38
U1C U96C G126A | 0.08
U1C U96C U102A U109C | 0.3
U1C U100A U104C | 1.1
U1C U100C C118U | 1.53
U1C U108C A129G | 2.7
U1C U119C G144A | 1.13
U1C U134C A136G | 1.19
U1G A2G U12G G105A | 0.71
U1G A140G U143C | 0.54
U1G C18A A43G A142G | 1.24
U1G C37U A64G A65G U87C A121U | 0

Variant | self-cleavage
U1G C101A U112C A117U | 0.92
U1G G36C G114A | 1.08
U1G G53U A77G | 0.71
U1G U12G U45C A69G G122A | 0.84
U1G U13A U104C G139A | 1.25
U1G U15C A78U A107U | 1.56
U1G U15C C37U | 1.89
U1G U20A A42G A107G A140U | 1.56
U1G U104C A142G | 0.9
A2C A22G U39C A107G | 0
A2C A31G G32U | 0.8
A2C A59G U112C A129G | 0
A2C A77U U100C G144A | 1.77
A2C G72A U73C U100C G105A A141G | 1.73
A2C G105A U132A | 1.1
A2C U12A U14A | 1.22
A2C U14A U45C C101A | 0.56
A2C U15A C17U G122U A140G | 0.78
A2C U20C U104C | 2.19
A2C U39C C71U U132C U143C | 0.4
A2C U52A A59G A136G | 0.1

Variant | self-cleavage
A2G A6G A22G U119C U134C | 0
A2G A6G U62A A141G | 0.13
A2G A22G A64G A69G G86A C123A | 0.14
A2G A22G A78G | 1.07
A2G A24G A31U G41A U46C U119A U130C A141G | 1.84
A2G A30G A57G C76U U109C A140G | 0.37
A2G A30G A77C | 0.84
A2G A30G G139A A141G | 0.69
A2G A31C A124U | 0.77
A2G A31G U62G | 0.82
A2G A31U U62C C146U | 0.63
A2G A42G A77G U108G C113U U130A | 1.72
A2G A42G C56G A117G | 0.19
A2G A42G U62G A140G | 0
A2G A42G U73C A141U | 1.41
A2G A42G U102A | 1.53
A2G A42U A78G A121G | 0
A2G A50G A142G | 0.79
A2G A50G U109C U134A | 0.2
A2G A57G A107U | 0.98

Source: the RNAGym collection of RNA variant scans (doi:10.7554/elife.90254)
